# The supplement of paper PMC12632987
# In all, about 4,500 sequences were measured (“median log2 fold change of GCK-ALFA target abundance (FLAG IP / Myc IP barcode read proportion)”: median about 0.078, lowest 2% from about -0.6 on). This is one part of the list.
# B1: GBRAP_160_4809 (protein)
# chain: MEKAEKLLEEARKDLLETAEASKDLPIEDRARLLEAEGYTSILDFEEELNISDETEEKLAQVVDDLVATLLANPDLSDEEVLALVEEAAEKMKEIVKEEV
# B2: GBRAP_160_4756 (protein)
# chain: KEELKKLKEEIEEIFEEYLEILKEVPASEAPTVVRGAMGEVLMLVMSSDAASDELEEKIGEILDKAEAEVKANADKPVEYHIGVLEEARKEIIELIEKEI
# B3: GBRAP_83_6893 (protein)
# chain: ETITVVGNDAESVAAAIDAAIDLSTEEGYEVVLELIVTPADLPTLEAGLDRLAAAGVKVDLEIVVVARTREEAEAAAARLRAHAEASGAARSVEVETEVV
# B4: GBRAP_160_4864 (protein)
# chain: SEKLEEALKILEEARKRALEVIEEAPASDRAAFAESEMGAAILELVEKGLITDELEDKLMEIADRLRAELRANADASVEEHKALVEKAFEEAMETVKKMS
# B5: GBRAP_74_6525 (protein)
# chain: DEKLLEELKKAAEAGDVEKAVELAREIIKTGSLEAIEKAAEILVEFVEKNIEKLTKEELELLSETLAELADKLMELGGKSEVVKKVAQAAVELEKKAEEL
# B6: GBRAP_11_2627 (protein)
# chain: KKEILEKMAELAERLAELLERLLEEGVDNEELRKEAEEVLEELTKLEKEYGDEADKKLVEIAREEWEKALEDEENAEEYLRRALAAARVLAGNYLLDIEE
# B7: GBRAP_160_4721 (protein)
# chain: EKKIEEFAKEALEELLEAVELSEGESREEARAIFEGAAGEVLMDAFEDPRFTDEMEDVVAEILDELVEELVANYDASLEEKKEIVKEKIEELKKELLKIA
# B8: GBRAP_52_6209 (protein)
# chain: MEEKARKLAEELYELMKAGDREGARKLAREIAETLDDEELEIFFKEFVELAKKARPEDHDLIFELAELIAEELLKEGRDEVLADDLLNSVAAALYENELK
# B9: GBRAP_11_2913 (protein)
# chain: KLENLKKIAELLEKLVETLKKLLEEGVDNEELFKKALELAEKALELIKENFDESDADLAQEAVRELKKAKEDPETAREHVERALAIARVLLGQALLEIEE
# B10: GBRAP_52_6231 (protein)
# chain: MEAEARARVEEMLALVRAGDLEGARALAREIAETYDDEELEVVIDALAALARAAPLEEAPLFEKAAEILAEVFEELGKDEVLIDLLEARVAAALYERELA
# B11: GBRAP_184_5079 (protein)
# chain: TTLERLIEAETDEELLAKVDAVLAEAAAQKADLVVLVDKPGLTVETVLEIIDRLGAAKKAGKVPRVTVGIDEEFTEEEIDIILKRADEEGVRVVLPIKDE
# B12: GBRAP_160_4848 (protein)
# chain: EEKKKKIEEEFNEAREFVLSLIPEVSVEQLANAFDAEIGTVALELLEEGIINEEAEDVAIEKADEARAELLAAKDASPEELKELITEKVEEMIEEVKKLL
# B13: GBRAP_11_2617 (protein)
# chain: KKEALKKAAKLAKELAKVVKKLIEEGVDNEELRAEAEKLLKELKKLTEEELDEAHKTEVEVVEELWAEAKADPENALAYAEQLLAALRVLEGNYLLDIEE
# B14: GBRAP_9_7169 (protein)
# chain: DEEKKKKIKEIVLEAFEEILKVVPEEKRPIVEEKKKEAEKRLEELLKDPNTTVEEFKEEAKKLLRDLVEELKKAVDPTTAAAVEAIALTAEEEIDEVLEE
# B15: GBRAP_83_6983 (protein)
# chain: KEKITVVFPGDKIEDAPKIVEDLTKEEGYEVDVEILATREDIPKVKEMVKEIAELGLEVNIDILLFGATEEEAKELKEELEKIAKEAGVNIKVNVEVEEE
# B16: GBRAP_80_6809 (protein)
# chain: AEEELAAALAEIEAIDPELAKRLKRIVELAKEMGVSLETLAEFAKAAAKLAKIDVEKAKELLEETEELLEEEKERGDTENAEAVLRVFAGQMLLEVEELE
# B17: GBRAP_78_6576 (protein)
# chain: EVEELIDEAIELLGKAGSLLSKIKTEEAQEILDLVIDAMDDLLEAEENGFDLELIEEALKKVEEALKKAKKIKTEEAKEIAKLLEEAKEKLEEAIKLLKK
# B18: GBRAP_160_4599 (protein)
# chain: SPETEKLLKELDEIVEETKKLIEGQSREEQLAIIRVGFGEILLELSLSPIVSDETEEKAAKIMDETIATIESNPDLTLEEIKALIDEALEKIKEAIKKDS
# B19: GBRAP_11_2606 (protein)
# chain: KKEKLKEAAKLAEELAKTVQQLLKEGVDDEKLLKEIEKLIKELRKLVKEELDEAHQRDVEVIEELWKEAKEDPENREFYLKQLQAAAEVLSGNYLLEIEE
# B20: GBRAP_78_6647 (protein)
# chain: EVEKLIDEALKHLDEAAKLARKLPEEERNELLAEITEASSYLLLSEEEGFDLKLLEEALKKLEEARKLVEKLDSPEAPAIKKELDKAIKLVKEAIKLVKA
# B21: GBRAP_78_6641 (protein)
# chain: KVEELLDKAIEHIRKARKLAKKLPEEVRNELLAELVEAESYILEAEENGFDLEKLEEAIKELEKALEIVEKSDHPEAPEIKEELEKAIKLLKEAVKLVKE
# B22: GBRAP_128_3467 (protein)
# chain: STEEAVAYARETMEAIEKANLEEARKLARELAERLLTLSLEEVEAVVEAIEEMLPKLSAEKLEILADVLAEARPQMTPEKAALVADVESDALLLAEELEE
# B23: GBRAP_53_6428 (protein)
# chain: SEEKIKELKKKIKELAEKATKADEEEAKKLIEEIVKLLEELKKAGAPDEEITKLVEEIARKLKEAGVSDSLLVELANGLAKMGLEEATAAVAEEIVEELE
# B24: GBRAP_125_3085 (protein)
# chain: AVAEALAAAGLILRAAGFSDEEVEEFRRLSADSSVKAVFNALAYLLLDEEEALKAEELSPEEALAVLRRVAARIEAHPDLTPEEVRALLAEEIDRALAAA
# B25: GBRAP_78_6636 (protein)
# chain: ELEEEIDKKFRELDEILRKTEWASEEARDEALDEFVEAGSHHIELEEDPNNVEAAEEAAKHTEKLAEIAKKGALTLKDELVAAAKKLAEAYKKYAEELKK
# B26: GBRAP_52_6074 (protein)
# chain: KEEEIKKMAEEIYKAIKEGNKEKALKLLEEAIKKFSVEEITKMLELTAKLVASLGDEAHELFVDVLLEGEDLLLEAGISEDDALLIVGAAEAALAKAVAA
# B27: GBRAP_52_6149 (protein)
# chain: SAARAAAYARAFVAAVRAGDEARARAIMEEIAATMSDEEIAAFFAELARLVATLTPEEKERVVELAIEFEDIAIAAGHDEDLMSYQLARVAGAAYDALQA
# B28: GBRAP_125_3058 (protein)
# chain: SKEEAIEDLEELARALGYSEDEIAELRELARASSIKNTLIAIALAEGNEELAEALEKLSEEEVIKVLKEVAEELKANPDLTPEEVLALLLETAKKALEES
# B29: GBRAP_128_3469 (protein)
# chain: MTEEAVERTRKILEEMKKASPEEARELFKELFEWLLTLPLEVVEAVVEEIEKHLPELSAEKLEILAEVADEAMPKATPEKAALLADLRSSALLEAEKLEE
# Target: GABARAP, O95166
# Sequence (O95166 whole entry, the tested form may be a part): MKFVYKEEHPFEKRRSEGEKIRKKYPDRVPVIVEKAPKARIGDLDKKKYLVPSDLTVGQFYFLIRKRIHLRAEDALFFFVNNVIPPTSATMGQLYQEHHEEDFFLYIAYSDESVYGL
# Assay: median log2 fold change of GCK-ALFA target abundance (FLAG IP / Myc IP barcode read proportion) (log2 ratio); each designed protein is fused to an ALFA-tag nanobody in HEK293 cells to bring the named protein to FLAG-tagged glucokinase (GCK); Myc marks an untargeted standard; higher = target protein stabilised (more abundant)
# Conditions: target protein: 3xFLAG-MCP-GCK-ALFA reporter; HEK293 landing pad (RPLP)
# How it was run: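 Binders fused to an ALFA nanobody were recombined as a library into HEK293 landing-pad cells, which were induced with 2 μg mL^−1 doxycycline and then transfected to express a FLAG-tagged target and a Myc-tagged standard. After 48 h, circular RNA barcodes recovered by anti-FLAG and anti-Myc immunoprecipitation of lysates were reverse transcribed, amplified and sequenced. Each binder's target abundance is the median log2 ratio of FLAG to Myc barcode read proportions, from barcodes present at ≥10^−7 in both replicates, binders carrying ≥3 barcodes per replicate, a 10^−6 pseudocount and pooled replicates.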
row,Binder,median log2 fold change
1,B1,-0.35
2,B2,-0.039
3,B3,0.0822
4,B4,0.128
5,B5,0.284
6,B6,0.153
7,B7,-0.419
8,B8,0.0262
9,B9,0.096
10,B10,0.225
11,B11,-0.178
12,B12,0.0244
13,B13,0.18
14,B14,0.202
15,B15,0.157
16,B16,0.0503
17,B17,-0.0785
18,B18,0.0702
19,B19,0.264
20,B20,0.36
21,B21,0.191
22,B22,-0.0714
23,B23,0.303
24,B24,0.0772
25,B25,0.253
26,B26,-0.0793
27,B27,-0.0576
28,B28,0.00382
29,B29,0.314
